The supplement of paper PMC3334620
In all, about 33,000 sequences were measured (“E-score (-0.5 to 0.5)”: median about -0.011, highest 2% from about 0.28 on). Some of the results follow.

These sequences were tested against T1, Gcr1 (UniProt P07261) (assay: PBM E-score (8-mer binding enrichment) (E-score (-0.5 to 0.5)); higher = stronger / more preferred TF binding; most listed sequences are background and not binding sites). Details: protein concentration: 100 nM; construct: GST-full length.
T1 sequence: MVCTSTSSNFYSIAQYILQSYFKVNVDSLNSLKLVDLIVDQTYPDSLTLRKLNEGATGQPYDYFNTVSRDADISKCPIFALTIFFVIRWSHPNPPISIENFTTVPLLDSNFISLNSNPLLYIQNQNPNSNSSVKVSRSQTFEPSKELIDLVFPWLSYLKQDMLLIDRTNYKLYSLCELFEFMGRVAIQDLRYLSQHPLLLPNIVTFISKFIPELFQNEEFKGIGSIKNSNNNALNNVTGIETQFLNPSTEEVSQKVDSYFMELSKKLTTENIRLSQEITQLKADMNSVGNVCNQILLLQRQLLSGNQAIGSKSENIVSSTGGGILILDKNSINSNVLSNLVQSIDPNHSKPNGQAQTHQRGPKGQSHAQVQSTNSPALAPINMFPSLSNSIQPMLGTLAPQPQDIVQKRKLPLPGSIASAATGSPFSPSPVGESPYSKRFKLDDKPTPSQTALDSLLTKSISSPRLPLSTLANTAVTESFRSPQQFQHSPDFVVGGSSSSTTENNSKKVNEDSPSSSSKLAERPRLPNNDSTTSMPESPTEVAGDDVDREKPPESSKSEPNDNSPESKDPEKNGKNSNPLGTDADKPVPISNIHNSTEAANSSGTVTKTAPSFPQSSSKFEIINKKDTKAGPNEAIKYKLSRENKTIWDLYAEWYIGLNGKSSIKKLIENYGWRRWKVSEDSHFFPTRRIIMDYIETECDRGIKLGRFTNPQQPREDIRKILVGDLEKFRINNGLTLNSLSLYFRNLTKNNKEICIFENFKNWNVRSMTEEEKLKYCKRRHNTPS
Description: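 Universal 'all 10-mer' protein binding microarrays (Agilent AMADID 015681) probed with GST-tagged S. cerevisiae TFs (full-length or DBD) made by in vitro transcription/translation (PURExpress), about 100-200 nM. Bound TF was detected with fluorescent anti-GST. Each ungapped 8-mer (which stands for itself and its reverse complement) is scored by the PBM enrichment score (E-score), a modified Wilcoxon-Mann-Whitney statistic from -0.5 to +0.5, computed with the Universal PBM Analysis Suite. Scale: above 0.35 generally sequence-specific binding.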

Sequence	PBM E-score
GTCTAAGA	-0.0474
GGCGGAGA	0.108
GCATCGGC	-0.181
CAATTCGC	-0.067
ACCTTTAT	-0.0342
CTGGGTTC	0.263
AGGAGACA	-0.027
GTAAGAGA	-0.0339
GCGTACCC	-0.114
AAGTAGCG	0.0898
CGGTCAAG	-0.162
ACTGTAAC	-0.08
CAGTTGAA	0.0333
ACGCATCA	0.13
GAACCAGA	0.158
GGCCCCGA	-0.0513
CAAGTTCC	0.233
AGATAGAG	0.00308
ACGTGGTG	-0.0699
GGGGGTCA	-0.287
TGTTTGAA	0.24
AGAATTCG	0.117
CGGGTGCC	0.377
ATGGCACC	0.201
AGTTTTAC	-0.0167

Sequence	PBM E-score
CGCGTTGC	-0.0294
CTTGACCA	-0.0951
AGGATGCG	0.21
GTTCCGTA	0.00192
ACTAGAAG	0.259
AACATGCG	0.0448
CCTAACGA	-0.102
AAAAAGAT	0.0952
CTCCCCGC	0.196
AGGAAGTA	-0.0761
CGGCTAAA	0.0376
GACGCGTC	0.26
AAAAGGGA	0.0498
GTATACCA	0.0647
AAACACTA	0.0508
ACATTGCA	-0.0715
ACGTTCTG	-0.0683
AACGCCCG	0.0165
CATGAAGC	0.0163
CGGTTAGA	-0.123
CCCCGAGG	-0.0357
AAACTTGT	0.0404
CGATCTCA	-0.181
GGGCCGAA	-0.206
CTAGAACC	0.121

Sequence	PBM E-score
ATCCGCAT	0.155
GCGAGGAA	0.0756
GGCTCCAC	0.248
AGTCAAGG	-0.125
ACACTTAC	-0.192
GCTCGAAC	-0.292
GATGGTCC	-0.0114
ACGCAATA	0.188
TATGTTGA	-0.114
CCAGGACA	-0.0866
GACGTCCA	0.0839
GTCCAAAC	0.16
ACTCACAC	-0.0542
AACAGAGG	0.118
CCGTCCGC	-0.171
GATGAGAA	-0.138
CAGGGTGC	0.234
AAGCAACA	-0.0142
AGTTCGCG	0.0674
ATAAAGCG	0.0542
CGTACGTC	-0.277
AAATAGAC	0.23
AGAGGTTG	0.113
GTACCATA	0.0685
GGGGAGGA	-0.151

Sequence	PBM E-score
AATCGGAA	0.16
AAAACCGT	0.0768
GCAGGGAA	-0.0427
CTTGTAAA	0.0987
CGCCAACA	0.17
CTTCTACA	0.126
GAACCTTA	0.115
ATTTCGTG	0.0974
AGGACCCG	0.0549
ATGGTTGG	-0.0547
AGTAATGG	-0.0258
GGGATCTA	0.097
GGGTTCAC	-0.216
CATAGACC	-0.0977
ATGCTGTA	0.0584
GAGTATCC	-0.0775
CAGCCCTA	0.17
AATATATA	0.0542
ATTTGTAA	0.149
TCGTCCCA	-0.0947
ATAGCCGA	3e-05
AACGCAGT	-0.173
CTAACAGC	0.0545
ACAATTCT	0.109
GCTGTAGA	-0.0143

Sequence	PBM E-score
CTCAGTGA	-0.197
AAGTGCTC	-0.0799
ACCACCAA	0.0926
ATGTGAAA	-0.0826
CAGTAGTA	-0.0203
TCGCATCA	0.0304
GAGTATCA	-0.209
ATGATCAG	-0.0733
CCTGATAC	-0.0282
ACAAGCGA	-0.191
GAGCGGCC	0.118
CCACTGCG	0.135
ATCTCGTC	-0.0648
AGCCCAAG	-0.0551
AAAATAGT	0.0219
AAATCTGT	-0.0402
CAGTGTTC	0.04
ATGTTCGC	-0.0946
AAAGCGGT	0.0425
AGGTCCAC	-0.11
CAAGAGGC	0.107
CCTTCGAC	-0.0984
GATCTCTA	-0.121
ACTTAACG	-0.138
CACGCTGC	0.236

Sequence	PBM E-score
CGGCACGA	-0.167
ACACCTAG	-0.0482
CATGTTCC	-0.00272
GCGTGCTA	-0.0687
ATAGATGG	-0.064
CTGCTCTA	-0.0135
ACCTGTCA	0.0631
CACCTATG	-0.151
AAATCTAC	0.0226
ACGGGTGC	-0.0528
GCTGCCTA	0.305
CGGTAGTA	-0.0106
CCAGTCTA	0.164
GCTTGTGA	-0.0357
CGCCTTTA	0.0726
CAATTATA	0.17
GATCTAAC	-0.0971
AATTTTCT	0.13
AACAGTCT	-0.219
ACACGGGC	0.0876
AGTACTCC	-0.225
CGTCAGCA	0.0676
AATATATG	-0.0833
CGCCGAGA	0.153
CTTCGTCA	0.0238

Sequence	PBM E-score
CGATACAC	-0.128
CCCGCCAC	0.0688
TACGCCAA	-0.0641
AAAGGGCG	0.0478
ACACTGAC	-0.223
ATTTGAAC	0.0624
ATAAATCC	-0.0318
CCCGATTC	-0.13
AACAAAGT	-0.042
CCCCGGTC	-0.188
ACGAAGAC	-0.0542
CGCTCTGA	-0.0875
CATTGGGA	0.0332
AATCAATA	-0.0831
GATCCATC	-0.199
CATCAGCA	-0.00431
CGTGGCTA	0.0149
ACCGTTCG	-0.332
ACAGCGAA	-0.00628
TGAGAGCA	-0.0171
ATCATTAA	0.137
CCAGTTGC	0.199
